Measurements from PubChem BioAssay AID1159614 (National Center for Advancing Translational Sciences (NCATS), 2016).
The campaign covered roughly 45,000 compounds. About 65 (0.1%) were called active. Calls follow the shape of the dose curve; as a rule, active = well fitted activation curve with a large enough effect; inconclusive = small, poorly fitted or top-dose-only effect; inactive = no such curve, though single readings can be large or run the other way. This is one part of the list.

Molecular target: Galactocerebrosidase (Homo sapiens) (UniProt P54803)
Assay: A Novel Cell-Based Assay to Identify Small Molecules for B -Galactocerebrosidase; also: 0% is about no effect; nearly all actives have a fitted effect of over 65% in size
Conditions: 145M-Twi-hGALC-G270D cells (Twitcher mouse brain line with human GALC G270D), HMU-beta-Gal fluorescence, 48 h; series mostly up to 57.5 µM; activation: at the top concentration
Procedure, shortened: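 Fluorogenic HMU-b-Gal hydrolysis (0.1 mM final, pH 5.2 citrate-phosphate with 1 mg/mL sodium taurocholate; carbonate stop buffer) measures mutant GALC activity after compound treatment of live 145M-Twi Twitcher brain cells stably carrying human GALC-G270D, with wild-type GALC line alongside; activation sought.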

UniProt P54803, sequence (P54803 whole entry, looked up): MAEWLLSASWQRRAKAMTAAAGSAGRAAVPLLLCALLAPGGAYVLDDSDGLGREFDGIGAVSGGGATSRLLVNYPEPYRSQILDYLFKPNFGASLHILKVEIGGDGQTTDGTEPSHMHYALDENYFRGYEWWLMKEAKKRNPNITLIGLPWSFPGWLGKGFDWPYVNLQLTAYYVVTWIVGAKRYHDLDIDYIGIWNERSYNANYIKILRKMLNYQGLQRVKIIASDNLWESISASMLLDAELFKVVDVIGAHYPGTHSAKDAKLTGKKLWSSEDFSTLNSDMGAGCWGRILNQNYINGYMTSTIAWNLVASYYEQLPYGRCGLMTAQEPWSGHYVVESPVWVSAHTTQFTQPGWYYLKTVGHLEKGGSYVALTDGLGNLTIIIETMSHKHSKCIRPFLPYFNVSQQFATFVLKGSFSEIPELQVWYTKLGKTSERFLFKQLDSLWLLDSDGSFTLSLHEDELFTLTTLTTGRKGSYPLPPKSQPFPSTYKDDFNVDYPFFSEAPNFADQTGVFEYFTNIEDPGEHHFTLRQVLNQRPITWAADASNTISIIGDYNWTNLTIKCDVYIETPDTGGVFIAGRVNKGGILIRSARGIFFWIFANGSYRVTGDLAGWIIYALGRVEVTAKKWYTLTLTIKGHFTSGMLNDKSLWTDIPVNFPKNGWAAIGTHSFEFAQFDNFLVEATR

activation, inactive:
COc1ccc(Cn2c(CCC(=O)Nc3cccc(Cl)c3)nc3cccnc32)cc1 -20%
CCOc1cccc2cc(-c3nc(-c4ccc(Cl)cc4)c(C)s3)c(=O)oc12 -3.24%
CCc1ccc(-c2cn3c(n2)sc2cc(C(=O)NCCCc4ccccc4)ccc23)cc1 -5.29%
CCOc1ccc(C(c2c(C)[nH]n(-c3ccccc3)c2=O)c2c(C)[nH]n(-c3ccccc3)c2=O)cc1OC -37.6%
CCN(CC)CCNC(=O)c1ccc2c(=O)n3nc(Nc4cccc(Cl)c4C)sc3nc2c1 -16.3%
COc1ccc(-c2nsc(NC(=O)c3cccc(OC)c3)n2)cc1 -5.91%
COC(=O)c1ccc(CN(Cc2ccc(OC)c(OC)c2)S(=O)(=O)c2ccc(F)c(C(=O)Nc3cc(C)ccc3C)c2)cc1 -16.8%
CCOc1ccccc1NC(=O)CN1Cc2ccccc2C1=O -20.6%
N#Cc1nc(/C=C/c2ccc(F)cc2)oc1N1CCCCC1 -14.8%
Cc1cccc(C(=O)NCC(=O)OCc2cc(=O)n3nc(C)sc3n2)c1 -21%
CC(Oc1ccccc1)C(=O)Nc1ccc(C(=O)OCc2cc(=O)n3ccsc3n2)cc1 (centres undefined) -10.5%
CCOc1ccccc1CNC(=O)c1ccc2nc(CCc3ccccc3)oc2c1 -9.46%
CCc1nn2c(=O)cc(COC(=O)c3cccs3)nc2s1 -24.5%
Cc1nc(SCC(=O)Nc2ccc(Cl)cc2C(F)(F)F)[nH]c(=O)c1Cc1ccccc1 0.493%
Cc1ccc(Cn2cc3c(n2)-c2c(oc(C(=O)Nc4ccc(F)cc4F)c2C)CC3)cc1 -2.25%
CCOC(=O)c1ccc(NC(=O)Cn2cc(S(=O)(=O)Cc3ccccc3F)c3ccccc32)cc1 6.36%
CCCOc1ccccc1C(=O)Nc1ccc(-c2nc3ccc(C)cc3s2)cc1 -11.8%
Cc1cccc(Nc2cc(C)nc3nc(Cc4ccc(Cl)cc4)nn23)c1 -2.23%
COc1ccc(CNC(=O)c2ccc3c(Cl)c4c(nc3c2)CCCC4)c(OC)c1 -35.9%
Cc1cc(-c2ccccc2)nc2cc(C(=O)Nc3cc(C(F)(F)F)ccc3Cl)nn12 -11.2%
CCN(Cc1ccccc1)Cc1c(O)ccc2c(=O)c(-c3ccccc3Cl)coc12 5.36%
CCn1cc(C(=O)NCCCOC(C)C)c(=O)c2cc(S(=O)(=O)N(C)C3CCCCC3)ccc21 -11.7%
CN(Cc1ccccc1)S(=O)(=O)c1ccc(F)c(C(=O)Nc2cc(Cl)cc(Cl)c2)c1 -8.31%
O=C(Nc1cc(-c2nc3cc(Cl)ccc3o2)ccc1Cl)c1cc2ccccc2o1 -22.8%
O=C(NCc1ccccc1)c1ccc(Cn2c(=O)c3cccn3c3cccnc32)cc1 -6.03%
Cc1ccc(C)c(N2CCN(S(=O)(=O)c3ccc4c(c3)n(C)c(=O)c(=O)n4C)CC2)c1 -11.2%
CCOC(=O)c1c(-c2ccccc2)csc1NC(=O)c1cc(-c2cccc(Cl)c2)on1 -7.71%
COc1cc(OC)c(NC(=O)CSCc2nc(-c3ccc(OC)c(OC)c3)no2)cc1Cl -8.41%
CC(=O)c1cccc(NC(=O)c2ccc3c(c2)c(C)c(C)n3Cc2ccc(Cl)cc2)c1 5.11%
COc1ccccc1OCCn1c(NC(=O)c2ccccc2)nc2ccccc21 -26.8%
Cc1ccc(NC(=O)C2CCN(c3ncccn3)CC2)cc1F 0.778%
Cc1ccc(CCNC(=O)c2ccc(Cn3c(=O)c4cccn4c4cccnc43)cc2)cc1 -4.15%
Cc1ccc(-n2c(SCC(N)=O)nc3c(oc4ccccc43)c2=O)cc1 -17.2%
O=C(COc1cccc(Cl)c1)N1CCC(c2nc3ccccc3s2)CC1 -17%
CCn1c(CNC(=O)C23CC4CC(CC(C4)C2)C3)nnc1SCC(=O)Nc1ccc(OC)cc1 -12.7%
CCc1cc2cc(OC)c(OC)cc2c(Cc2ccccc2)n1 -12%
O=C(O)CNC(=O)CNC(=O)CNC(=O)CSC(=O)c1ccccc1 -8.71%
CC1(C)S[C@@H]2[C@H](N=CN3CCCCCC3)C(=O)N2[C@H]1C(=O)O -17.9%
COc1ccc(NC(=O)CSc2nc3ccccc3n2CC(=O)Nc2cccc(C)c2C)cc1 0.817%
CCOc1ccccc1NC(=O)C(C)n1nnc2sc3c(c2c1=O)CCCC3 (centres undefined) -10.9%
O=C(O)c1cccc(NC(=O)c2cccc(S(=O)(=O)Nc3cccc(F)c3)c2)c1 7.98%
Cc1ccc(Cl)cc1N1CCN(C(=O)c2cnn(-c3ccc(Cl)cc3)c2C2CCNCC2)CC1 -14.7%
N#Cc1c[nH]n2c(NC3CCCC3)c(-c3ccc(Br)cc3)nc12 -5.65%
COc1cccc(C(=O)Nc2ccccc2SCc2cc(=O)c3cccc(C)c3[nH]2)c1 -11.1%
Cc1ccc(N2CCN(c3nc4ccccc4n4nnnc34)CC2)c(C)c1 -4.77%
Cc1cc(C)cc(NC(=O)c2cc(S(=O)(=O)N3CCOCC3)cn2C)c1 -15.1%
COc1cc(C(=O)OC(COCCC(C)C)CN2CCOCC2)cc(OC)c1OC (centres undefined) -11.4%
COc1cccc(C(=O)Nc2ccc(-c3nc4ccc(C)cc4s3)cc2)c1OC -10%
COc1cn(CC(=O)Nc2ccc(C)cc2C)c(CN2CCCCC2)cc1=O -5.94%
